{"source": "ChEMBL document CHEMBL1156829", "note": "In all, about 5,400 compounds were measured (“IFI”: median about 2, highest 2% from about 22 on). Some of the results follow."}
{"assay": "NOVARTIS: Inhibition Frequency Index (IFI) - the number of HTS assays where a compound showed > 50% inhibition/induction, expressed as a percentage of the number of assays in which the compound was tested.", "type": "functional", "units": {"IFI": "%"}}
{"smiles": "CN(C(=O)CCNC(=O)Cn1cnc2ccccc2c1=O)C1CCCCC1", "IFI": 0}
{"smiles": "O=C(Oc1ccccc1N1C(=O)C2C3C=CC(C3)C2C1=O)c1ccc([N+](=O)[O-])cc1", "note": "(configuration not stated)", "IFI": 0}
{"smiles": "CCCn1c(-c2cccc(Br)c2)nc2ccccc21", "IFI": 0}
{"smiles": "COc1cc(NC(C)CCCN(Cc2ccccc2OC)C(=O)Nc2cccc(F)c2)c2ncccc2c1", "note": "(configuration not stated)", "IFI": 4.81}
{"smiles": "CCN1C(=O)N(CCC(C)C)C2(CCN(Cc3cc(Cl)ccc3O)CC2)C1=O", "IFI": 3.7}
{"smiles": "CCCN1CCC(N2C[C@@H](NC3CCCCCC3)C[C@H]2C(=O)NCCc2ccc3c(c2)OCO3)CC1", "IFI": 2}
{"smiles": "COCCOC(=O)C1=C(C)NC2=C(C(=O)CC(c3ccc(OC)c(OC)c3)C2)C1c1ccccc1C", "note": "(configuration not stated)", "IFI": 7.59}
{"smiles": "CCOC(=O)CN(C)Cc1ccc2c(NC(=O)c3ccc(C)s3)c(C(=O)OC)sc2n1", "IFI": 1.72}
{"smiles": "Cc1ccn2c(NC(C)(C)CC(C)(C)C)c(-c3ccccc3OC(=O)c3cccc(F)c3)nc2c1", "IFI": 2.83}
{"smiles": "c1ccc(Oc2ccc(Nc3nc4nonc4nc3Nc3ccc(Oc4ccccc4)cc3)cc2)cc1", "IFI": 0}
{"smiles": "COc1cccc(C(=O)NCc2nnc(S)n2-c2ccc(Cl)c(Cl)c2)c1", "IFI": 0}
{"smiles": "CCCOc1ccc(C(=O)C2=C(O)C(=O)N(CCN3CCOCC3)C2c2ccc(F)cc2)c(C)c1", "note": "(configuration not stated)", "IFI": 0}
{"smiles": "NNc1ncnc2[nH]cnc12", "IFI": 0}
{"smiles": "CCCCCc1c(C)c(C#N)c2nc3ccccc3n2c1NCCN(CC)CC", "IFI": 2.38}
{"smiles": "N#Cc1c(NC(=O)CCl)c(C(=O)c2ccccc2)n2c1CCC2", "IFI": 0}
{"smiles": "O=c1c([N+](=O)[O-])cccn1Cc1ccc(F)cc1Cl", "IFI": 0}
{"smiles": "CCCNCC(O)COc1ccccc1C(=O)CCc1ccccc1", "note": "(configuration not stated)", "IFI": 0.549}
{"smiles": "COc1ccc(C2CC(=O)C3=C(C2)NC(C)=C(C(=O)OC2CCCCC2)C3c2ccc([N+](=O)[O-])cc2)cc1OC", "note": "(configuration not stated)", "IFI": 4.82}
{"smiles": "COC(=O)C1=C(C)NC2=C(C(=O)CC(c3ccc(OC)c(OC)c3)C2)C1c1cccc(Cl)c1Cl", "note": "(configuration not stated)", "IFI": 4.82}
{"smiles": "O=C(Nc1ccc(Nc2cc([N+](=O)[O-])ccc2O)c2c1C(=O)c1ccccc1C2=O)c1ccccc1", "IFI": 7.69}
{"smiles": "CCOC(=O)c1sc(NC(=O)CSc2nnc(CNC(=O)COc3ccccc3)n2C)c(C(=O)OCC)c1C", "IFI": 1.19}
{"smiles": "CC1CCN(S(=O)(=O)c2ccc(C(=O)NCc3ccco3)cc2)CC1", "IFI": 0}
{"smiles": "Cc1ccccc1Nc1sc(C(=O)c2ccc([N+](=O)[O-])cc2)c(N)c1C(=O)Nc1ccccc1", "IFI": 0}
{"smiles": "CCCC(c1nnnn1C1CCCCC1)N1CCN(C(=O)c2ccco2)CC1", "note": "(configuration not stated)", "IFI": 0}
{"smiles": "CCCCCCCCC(=O)N1CCN(C(CC)c2nc3ccccc3c(=O)n2C)CC1", "note": "(configuration not stated)", "IFI": 2.1}
{"smiles": "CCCOC(=O)C1=C(C)NC2=C(C(=O)CC(c3ccc(OC)cc3)C2)C1c1ccc([N+](=O)[O-])cc1", "note": "(configuration not stated)", "IFI": 2.44}
{"smiles": "CN(C)c1ccc(/C=C/c2cccc(/C=C/c3ccc(N(C)C)cc3)[n+]2C)cc1", "IFI": 25}
{"smiles": "CCOC(=O)c1ccc(NCc2c(C)[nH]c(C(=O)OCC)c2C)cc1", "IFI": 0}
{"smiles": "COc1ccc(-c2csc3ncnc(Cl)c23)cc1OC", "IFI": 6.15}
{"smiles": "O=C(NCCCN1CCCC1=O)c1ccc2nc(N3CCOCC3)sc2c1", "IFI": 0}
{"smiles": "CCC(c1nc2ccccc2c(=O)n1-c1ccc(Cl)cc1)N(Cc1ccccc1)C(=O)Nc1c(C(C)C)cccc1C(C)C", "note": "(configuration not stated)", "IFI": 0.917}
{"smiles": "COc1ccccc1NC(=O)C(=O)NCCc1ccc(OC)c(OC)c1", "IFI": 0}
{"smiles": "Cc1cc(NCCN2CCCCC2)c2ccc3ccccc3c2n1", "IFI": 7.02}
{"smiles": "CC(=O)Nc1ccc(-c2nc3c4ccccc4c4ccc(I)cc4c3[nH]2)cc1", "IFI": 4.69}
{"smiles": "Nc1nc(N)c2c(Oc3ccccc3)cccc2n1", "IFI": 14.3}
{"smiles": "CCN(Cc1ccccc1)Cc1c(O)ccc2oc(C)c(C(=O)Nc3ccc(C)cc3C)c12", "IFI": 0}
{"smiles": "O=C1C(Cc2ccccc2)N=C2c3ccccc3N=C(SCc3ccc(Cl)cc3)N12", "note": "(configuration not stated)", "IFI": 2.41}
{"smiles": "CC(C)NCC(O)c1ccc2ccccc2c1", "note": "(configuration not stated)", "IFI": 0.885}
{"smiles": "CC(=O)c1cccc(S(=O)(=O)NCCCNc2nc3cc(C)cc(C)c3cc2C#N)c1", "IFI": 0}
{"smiles": "Cc1cc(C)cc(NC(=S)NCCO)c1", "IFI": 0}
{"smiles": "COc1cc(Br)c(CCNC(=O)Cc2cc(OC)c(OC)cc2Br)cc1OC", "IFI": 3.01}
{"smiles": "CCCCCN(C(=O)COCc1ccccc1)C(CC)c1nc2ccccc2c(=O)n1-c1cccc(Cl)c1", "note": "(configuration not stated)", "IFI": 1.89}
{"smiles": "COc1ccc2ccccc2c1C1NC(SCc2ccc(F)cc2)=NC(C)=C1C(C)=O", "note": "(configuration not stated)", "IFI": 0}
{"smiles": "N#Cc1c2c(c(N3CCN(C4CCCCC4)CC3)n3c1nc1ccccc13)CCC2", "IFI": 1.47}
{"smiles": "COc1ccc(-c2c[n+](Cc3ccc(Cl)cc3Cl)c3n2CCC3)cc1", "IFI": 4.76}
{"smiles": "Cc1ccc(C=NNc2ncnc3nc[nH]c23)cc1", "IFI": 0}
{"smiles": "CCOC(=O)c1cccc(NC(=O)CC2C(=O)N(c3ccccc3)C(=O)N2C2CCCC2)c1", "note": "(configuration not stated)", "IFI": 0}
{"smiles": "Cc1cc(O)ccc1-c1cnc2ccccc2n1", "IFI": 0}
{"smiles": "CN1C=C(c2ccc3ccccc3n2)C(C[N+](=O)[O-])c2ccccc21", "note": "(configuration not stated)", "IFI": 16.7}
{"smiles": "CCOC(=O)N1CCC(NC(=O)CSCc2nc(-c3cccc(OC)c3)oc2C)CC1", "IFI": 0}
{"smiles": "N#Cc1c(N)nc(C(Cl)(Cl)Cl)nc1-c1ccccc1", "IFI": 1.47}
{"smiles": "CC1(C)N=C(N)N=C(N)N1c1ccc(F)cc1", "IFI": 0}
{"smiles": "CC1CN(C(=O)CCCSc2nnc(Cc3ccccc3)n2-c2ccc(Cl)c(Cl)c2)CC(C)O1", "note": "(configuration not stated)", "IFI": 2.73}
{"smiles": "CCOc1ccc2c(c1)cc(CN(C(C)=O)C1CCCC1)c1nnnn12", "IFI": 1.82}
{"smiles": "N#Cc1c(N)nc(SCC(=O)c2ccc(Br)cc2)c(C#N)c1-c1ccccc1", "IFI": 5.75}
{"smiles": "COC(=O)c1ccc(C(=O)Nc2ccc(-c3nc4cc(NC(=O)c5ccc(C(=O)OC)cc5)ccc4[nH]3)cc2)cc1", "IFI": 1.51}
{"smiles": "CCOC(=O)N1CCN(C(=O)C(=O)NNC(=O)COc2ccc(Cl)cc2Br)CC1", "IFI": 0}
{"smiles": "CCc1ccc(NC(=O)c2ccc(F)c(S(=O)(=O)N3CCN(C)CC3)c2)cc1", "IFI": 0}
{"smiles": "CCCc1nc2ccc(NC(=O)c3ccco3)cc2c(=O)n1Cc1ccc(-c2ccccc2)cc1", "IFI": 5.46}
{"smiles": "O=C(Nc1nccs1)c1cc(-c2cccnc2)nc2ccc(Br)cc12", "IFI": 0}
{"smiles": "CC1N=C2c3ccccc3N=C(SCc3ccc(F)cc3)N2C1=O", "note": "(configuration not stated)", "IFI": 3.53}
{"smiles": "CC(C)OCCCNc1sc(S(=O)(=O)c2ccccc2)nc1S(=O)(=O)c1ccc(Cl)cc1", "IFI": 0}
